We go through 73 sequences from PMC5892938.

This is one part of the list. At the low end of the ranking the order means little.

The assay deals with GST-SBP-SLBP (stem-loop binding protein) (UniProt Q14493). As to the kind of experiment: targeted RNA Bind-n-Seq.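 Also: DESeq read counts versus GST-SBP nonspecific binding control pulldown.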 To be noted: RBNS binding buffer: 25 mM Tris pH 7.5, 150 mM KCl, 3 mM MgCl2, 0.1% Tween, 0.5 mg/mL BSA, 1 mM DTT; 27 nM protein, 750 pM RNA pool; temperature not stated; high values mean tight binding.
Take “GGUCACGUCUCAAUCAACUCUACAGAGGGGGGGAAAACCCCUUUGCCCUCCAUUUCAACAGCUCGCAGUCAAG”: the binding signal (log2 fold change) was -0.00125.
Regarding “GGUCACGUCUCAAUCAACUCCCUAGAGGGGGGGAAAACCCCUUUGCCCUCAUCCUCAACAGCUCGCAGUCAAG”, the binding signal (log2 fold change) is -0.0494.
Regarding “GGUCACGUCUCAAUCAACUCAAUUCCCAGGGAAAGCCCUGGCAUUUUCAACAGCUCGCAGUCAAG”, the binding signal (log2 fold change) is -0.0234.
In the case of “GGUCACGUCUCAAUCAACUCCCAAGAGGGGGGGAAAACCCCUUUACCCUCACUAUCAACAGCUCGCAGUCAAG”, the binding signal (log2 fold change) is -0.0506.
Turning to “GGUCACGUCUCAAUCAACUCUCUCGAGGGGGGGAAAACCCCUUUACCCUCAUCUUCAACAGCUCGCAGUCAAG”, the binding signal (log2 fold change) amounted to 0.251.
Then “GGUCACGUCUCAAUCAACUCAUCCCCCAGGGAAAACCCUGGCUUUUUCAACAGCUCGCAGUCAAG”, with 0.0339.
For “GGUCACGUCUCAAUCAACUCUUCUUCCAGGGAAAACCCUGGCAAACUCAACAGCUCGCAGUCAAG” the value was 0.378; for “GGUCACGUCUCAAUCAACUCUUCUCCCAGGGAAACCCCUGGUAAUUUCAACAGCUCGCAGUCAAG”, -0.208; for “GGUCACGUCUCAAUCAACUCAUUCUCAGGAGUUUUCUCCUGCAUAGUCAACAGCUCGCAGUCAAG”, -0.0797.
As to “GGUCACGUCUCAAUCAACUCAUCCUCAGGAGUUUACUCCUGUAAAUUCAACAGCUCGCAGUCAAG”, the binding signal (log2 fold change) is 0.243.
With “GGUCACGUCUCAAUCAACUCUCAAGAGGGGGGGAAAACCCCUUUGCCCUCAUUCUCAACAGCUCGCAGUCAAG”, the binding signal (log2 fold change) was -0.339.
With “GGUCACGUCUCAAUCAACUCUAUCUCCAGGGAAACCCCUGGUUAUCUCAACAGCUCGCAGUCAAG”, the binding signal (log2 fold change) is 0.0397.
Consider “GGUCACGUCUCAAUCAACUCAUCUUCAGGAGUUUACUCCUGCAUAGUCAACAGCUCGCAGUCAAG”, for which the binding signal (log2 fold change) stood at 0.0844.
Turning to “GGUCACGUCUCAAUCAACUCUUUUUCAGGAGUUUUCUCCUGUUAACUCAACAGCUCGCAGUCAAG”, the binding signal (log2 fold change) is -0.0644.
“GGUCACGUCUCAAUCAACUCUUUAGAGGGGGGGAAAACCCCUUUGCCCUCAUCCUCAACAGCUCGCAGUCAAG”: the binding signal (log2 fold change) is 0.00885.
Then “GGUCACGUCUCAAUCAACUCAAAAGAGGGGGGGAAAACCCCUUUGCCCUCAAUAUCAACAGCUCGCAGUCAAG”, with -0.146; and “GGUCACGUCUCAAUCAACUCAAUCCCCAGGGAAACCCCUGGCUAUUUCAACAGCUCGCAGUCAAG”, with -0.0628.
As for “GGUCACGUCUCAAUCAACUCAACGCCAGGAGUUUCCUCCUGUAAAUUCAACAGCUCGCAGUCAAG”, the binding signal (log2 fold change) is -0.0571.
Turning to “GGUCACGUCUCAAUCAACUCAACUUCAGGAGUUUACUCCUGCUAUUUCAACAGCUCGCAGUCAAG”, the binding signal (log2 fold change) stood at 0.102.
Regarding “GGUCACGUCUCAAUCAACUCUCUAGAGGGGGGGAAAACCCCUUUGCCCUCAUACUCAACAGCUCGCAGUCAAG”, the binding signal (log2 fold change) was -0.291.
Take “GGUCACGUCUCAAUCAACUCAUUCUCAGGAGUUUGCUCCUGCAUUCUCAACAGCUCGCAGUCAAG”: the binding signal (log2 fold change) amounted to 0.274.
Then “GGUCACGUCUCAAUCAACUCAUCUUCAGGAGUUUGCUCCUGCUUUCUCAACAGCUCGCAGUCAAG”, with -0.0368.
With “GGUCACGUCUCAAUCAACUCUUCUCCCAGGGAAAUCCCUGGCUAACUCAACAGCUCGCAGUCAAG”, the binding signal (log2 fold change) was -0.0845.
Turning to “GGUCACGUCUCAAUCAACUCAACGCCAGGAGUUUACUCCUGUUAUCUCAACAGCUCGCAGUCAAG”, the binding signal (log2 fold change) is -0.487.
For “GGUCACGUCUCAAUCAACUCAUCUUCCAGGGAAAGCCCUGGUUUUUUCAACAGCUCGCAGUCAAG”, the binding signal (log2 fold change) is -0.00937.
Turning to “GGUCACGUCUCAAUCAACUCAGUUUCAGGAGUUUACUCCUGUUUUCUCAACAGCUCGCAGUCAAG”, the binding signal (log2 fold change) amounted to 0.179.
Then “GGUCACGUCUCAAUCAACUCUUUCUCAGGAGUUUCCUCCUGUAUUUUCAACAGCUCGCAGUCAAG”, with 0.0536; and “GGUCACGUCUCAAUCAACUCUAUUCCAGGAGUUUACUCCUGUUUUUUCAACAGCUCGCAGUCAAG”, with -0.153.
For “GGUCACGUCUCAAUCAACUCUAUUCCAGGAGUUUUCUCCUGCUUACUCAACAGCUCGCAGUCAAG” the value was -0.0707; for “GGUCACGUCUCAAUCAACUCAUUCCCAGGAGUUUUCUCCUGUUAUUUCAACAGCUCGCAGUCAAG”, 0.0672; for “GGUCACGUCUCAAUCAACUCAUUCUCAGGAGUUUGCUCCUGUAUACUCAACAGCUCGCAGUCAAG”, 0.0223.
Consider “GGUCACGUCUCAAUCAACUCAUUUUCCAGGGAAAUCCCUGGCUAACUCAACAGCUCGCAGUCAAG”, for which the binding signal (log2 fold change) was 0.233.
With “GGUCACGUCUCAAUCAACUCUAUCGCAGGAGUUUACUCCUGGUUAUUCAACAGCUCGCAGUCAAG”, the binding signal (log2 fold change) is -0.0705.
Then “GGUCACGUCUCAAUCAACUCAAUUUCAGGAGUUUGCUCCUGCUAUGUCAACAGCUCGCAGUCAAG”, with 0.0989.
For the sequence “GGUCACGUCUCAAUCAACUCUACUCCCAGGGAAAUCCCUGGUAAACUCAACAGCUCGCAGUCAAG”, the binding signal (log2 fold change) is -0.116.
With “GGUCACGUCUCAAUCAACUCAAUCUCCAGGGAAACCCCUGGCAAUCUCAACAGCUCGCAGUCAAG”, the binding signal (log2 fold change) was -0.0323.
For the sequence “GGUCACGUCUCAAUCAACUCUAUUCCAGGAGUUUACUCCUGUAUUCUCAACAGCUCGCAGUCAAG”, the binding signal (log2 fold change) is 0.0327.
Then “GGUCACGUCUCAAUCAACUCCCACGAGGGGGGGAAAACCCCUUUACCCUCUUCUUCAACAGCUCGCAGUCAAG”, with -0.0408; and “GGUCACGUCUCAAUCAACUCUUCCUCCAGGGAAACCCCUGGUAAUGUCAACAGCUCGCAGUCAAG”, with -0.295; and “GGUCACGUCUCAAUCAACUCAACUUCAGGAGUUUUCUCCUGUAAAUUCAACAGCUCGCAGUCAAG”, with 0.036.
Take “GGUCACGUCUCAAUCAACUCAUCUCCAGGAGUUUGCUCCUGCUUUUUCAACAGCUCGCAGUCAAG”: the binding signal (log2 fold change) was -0.142.
In the case of “GGUCACGUCUCAAUCAACUCCUCAGAGGGGGGGAAAACCCCUUUACCCUCACUAUCAACAGCUCGCAGUCAAG”, the binding signal (log2 fold change) was -0.225.
Consider “GGUCACGUCUCAAUCAACUCAGUCUCAGGAGUUUCCUCCUGUAAAUUCAACAGCUCGCAGUCAAG”, for which the binding signal (log2 fold change) was 0.0373.
Consider “GGUCACGUCUCAAUCAACUCUUUCUCCAGGGAAAUCCCUGGUAUAUUCAACAGCUCGCAGUCAAG”, for which the binding signal (log2 fold change) is -0.0357.
For “GGUCACGUCUCAAUCAACUCAUUUUCAGGAGUUUACUCCUGCAUAUUCAACAGCUCGCAGUCAAG” the value was -0.0347; for “GGUCACGUCUCAAUCAACUCAUUUUCAGGAGUUUCCUCCUGCUUUCUCAACAGCUCGCAGUCAAG”, 0.0829.
Turning to “GGUCACGUCUCAAUCAACUCUAUCCCAGGAGUUUUCUCCUGUAUACUCAACAGCUCGCAGUCAAG”, the binding signal (log2 fold change) came to 0.273.
As to “GGUCACGUCUCAAUCAACUCUUUCCCCAGGGAAAACCCUGGCAAUCUCAACAGCUCGCAGUCAAG”, the binding signal (log2 fold change) came to 0.207.
For “GGUCACGUCUCAAUCAACUCUUCGGAGGGGGGGAAAACCCCUUUACCCUCAAUCUCAACAGCUCGCAGUCAAG” the value was 0.453.
Take “GGUCACGUCUCAAUCAACUCUAUCUCCAGGGAAAUCCCUGGCAAUGUCAACAGCUCGCAGUCAAG”: the binding signal (log2 fold change) worked out at 0.418.
As for “GGUCACGUCUCAAUCAACUCUAUCCCCAGGGAAACCCCUGGUUUAUUCAACAGCUCGCAGUCAAG”, the binding signal (log2 fold change) is -0.04.
As to “GGUCACGUCUCAAUCAACUCACAAGAGGGGGGGAAAACCCCUUUGCCCUCACCAUCAACAGCUCGCAGUCAAG”, the binding signal (log2 fold change) came out at 0.258.
Turning to “GGUCACGUCUCAAUCAACUCUCAAGAGGGGGGGAAAACCCCUUUACCCUCACCUUCAACAGCUCGCAGUCAAG”, the binding signal (log2 fold change) was -0.182.
“GGUCACGUCUCAAUCAACUCCCCAGAGGGGGGGAAAACCCCUUUACCCUCGUAUUCAACAGCUCGCAGUCAAG”: the binding signal (log2 fold change) is -0.324.
For the sequence “GGUCACGUCUCAAUCAACUCAUUCCCAGGAGUUUCCUCCUGCUUAUUCAACAGCUCGCAGUCAAG”, the binding signal (log2 fold change) was 0.0716.
For “GGUCACGUCUCAAUCAACUCAUCCUCAGGAGUUUUCUCCUGUAUUCUCAACAGCUCGCAGUCAAG” the value was 0.136; for “GGUCACGUCUCAAUCAACUCUUUCUCAGGAGUUUACUCCUGCAUAUUCAACAGCUCGCAGUCAAG”, -0.0652.
In the case of “GGUCACGUCUCAAUCAACUCUUCUUCAGGAGUUUUCUCCUGUUAUGUCAACAGCUCGCAGUCAAG”, the binding signal (log2 fold change) stood at 0.207.
As for “GGUCACGUCUCAAUCAACUCUCAAGAGGGGGGGAAAACCCCUUUGCCCUCGUAAUCAACAGCUCGCAGUCAAG”, the binding signal (log2 fold change) amounted to 0.452.
As to “GGUCACGUCUCAAUCAACUCACAUGAGGGGGGGAAAACCCCUUUACCCUCCAAAUCAACAGCUCGCAGUCAAG”, the binding signal (log2 fold change) is -0.566.
As for “GGUCACGUCUCAAUCAACUCAUUCUCAGGAGUUUUCUCCUGUUUACUCAACAGCUCGCAGUCAAG”, the binding signal (log2 fold change) is -0.111.
Then “GGUCACGUCUCAAUCAACUCUACUUCCAGGGAAAUCCCUGGUAUACUCAACAGCUCGCAGUCAAG”, with 0.0107.
With “GGUCACGUCUCAAUCAACUCAAUCUCCAGGGAAAUCCCUGGCAAUGUCAACAGCUCGCAGUCAAG”, the binding signal (log2 fold change) was -0.0757.
Regarding “GGUCACGUCUCAAUCAACUCCUUCGAGGGGGGGAAAACCCCUUUACCCUCAAAAUCAACAGCUCGCAGUCAAG”, the binding signal (log2 fold change) stood at 0.173.
Consider “GGUCACGUCUCAAUCAACUCUUAAGAGGGGGGGAAAACCCCUUUGCCCUCACAAUCAACAGCUCGCAGUCAAG”, for which the binding signal (log2 fold change) is 0.135.
Then “GGUCACGUCUCAAUCAACUCAUCGUCAGGAGUUUACUCCUGCUAACUCAACAGCUCGCAGUCAAG”, with 0.304; and “GGUCACGUCUCAAUCAACUCCUACGAGGGGGGGAAAACCCCUUUGCCCUCAAUAUCAACAGCUCGCAGUCAAG”, with 0.0313; and “GGUCACGUCUCAAUCAACUCCAACGAGGGGGGGAAAACCCCUUUACCCUCUACAUCAACAGCUCGCAGUCAAG”, with 0.0135.
In the case of “GGUCACGUCUCAAUCAACUCUUCGCCCAGGGAAAUCCCUGGUAUUUUCAACAGCUCGCAGUCAAG”, the binding signal (log2 fold change) was -0.0922.
For “GGUCACGUCUCAAUCAACUCACAAGAGGGGGGGAAAACCCCUUUACCCUCAACCUCAACAGCUCGCAGUCAAG” the value was 0.0386; for “GGUCACGUCUCAAUCAACUCAGUUUCCAGGGAAACCCCUGGCUUUCUCAACAGCUCGCAGUCAAG”, -0.133.
On to “GGUCACGUCUCAAUCAACUCUUCGUCAGGAGUUUCCUCCUGUAUUUUCAACAGCUCGCAGUCAAG”, for which the binding signal (log2 fold change) turned out to be 0.184.
Regarding “GGUCACGUCUCAAUCAACUCCAAAGAGGGGGGGAAAACCCCUUUACCCUCACCGUCAACAGCUCGCAGUCAAG”, the binding signal (log2 fold change) was -0.231.
